According to PubChem BioAssay AID624417 (National Center for Advancing Translational Sciences (NCATS), 2012):
About 6,400 (1.6%) of roughly 410,000 compounds were called active. This list was built around the results that the source calls inconclusive (neither active nor inactive); the mix of calls is not that of the screen. The call rests on the fitted dose curve; in most records, active means well fitted inhibition curve with a large enough effect; inconclusive means small, poorly fitted or top-dose-only effect; inactive means no such curve, though single readings can be large or run the other way. Potencies beside an inconclusive call are fits to weak or partial responses and may not hold up.

Target: Glucagon-like peptide 1 receptor (Homo sapiens) (UniProt P43220)
Assay: qHTS of GLP-1 Receptor Inverse Agonists (Inhibition Mode); further: nearly all actives have a fitted effect of over 55% in size
Settings: HEK293 GLP-1R CRE-luciferase, luminescence, 24 h, GLP-1R form is constitutively active; series mostly up to 38.3 µM
Method in brief: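 HEK293 cells stably co-expressing a cAMP-responsive luciferase reporter and constitutively active GLP-1R were seeded, incubated 12 h, then exposed to compounds for 24 h at 37 C. Luminescence was read 12 min after detection reagent; inverse agonists lower signal.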
Potency means the concentration at half of the fitted maximal effect; tags describe the fitted curve by direction and shape.

UniProt P43220, sequence (P43220 whole entry, looked up): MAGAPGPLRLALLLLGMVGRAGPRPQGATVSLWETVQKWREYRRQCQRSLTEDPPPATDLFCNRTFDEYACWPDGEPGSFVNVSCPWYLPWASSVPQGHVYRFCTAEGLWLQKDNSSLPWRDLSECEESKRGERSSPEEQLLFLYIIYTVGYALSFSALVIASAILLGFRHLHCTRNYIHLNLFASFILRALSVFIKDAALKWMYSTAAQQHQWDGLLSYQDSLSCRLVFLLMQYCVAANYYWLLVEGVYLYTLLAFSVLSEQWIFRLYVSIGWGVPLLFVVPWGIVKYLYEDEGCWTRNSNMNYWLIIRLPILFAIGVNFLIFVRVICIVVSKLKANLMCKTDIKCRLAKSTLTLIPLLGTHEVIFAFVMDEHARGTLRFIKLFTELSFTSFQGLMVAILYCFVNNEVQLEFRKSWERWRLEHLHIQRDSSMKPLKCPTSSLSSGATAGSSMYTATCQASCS

Potency, inconclusive:
O=C(CN1CCCN(S(=O)(=O)c2ccc(Br)cc2)CC1)Nc1cccc(C(F)(F)F)c1 14.1 µM [inhibitor, single point]
Cc1ccc(COCC(CC(C)C)N2CCN(C(=O)c3cccc(C(F)(F)F)c3)CCC2=O)cc1 (stereo not drawn) 28.2 µM [inhibitor, single point]
Cc1cc(C(=O)N2CCCC(N3CCN(c4cccc(Cl)c4)CC3)C2)no1 (stereo not drawn) 1.58 µM [inhibitor, partial curve, poor fit]
CCOC(=O)c1cnc2c(OC)cccc2c1N1CCN(c2ccc(OC)cc2)CC1 10 µM [inhibitor, partial curve, poor fit]
CCOC(=O)C1=C(c2ccccc2)OC(N)=C(C#N)C1C1CCCCC1 (stereo not drawn) 8.91 µM [inhibitor, partial curve, poor fit]
Cc1ccc(NC(=O)NC(=O)CN2CCN(c3ccc(O)cc3)CC2)c(C)c1 1.12 µM [inhibitor, full curve, poor fit]
CC1CCCC(C)N1CCNC(=O)Nc1ccc(Cl)cc1 (stereo not drawn) 11.2 µM [inhibitor, single point]
CC(=O)Nc1ccc(N2C(C(C)=O)=NN(c3ccc(Cl)cc3)C2c2sccc2C)cc1 (stereo not drawn) 22.4 µM [inhibitor, single point]
CC(C)Oc1cccc(C(=O)NC(=S)N2CCN(c3ccc(C(F)(F)F)cc3[N+](=O)[O-])CC2)c1 7.94 µM [inhibitor, partial curve, poor fit]
Cc1cc(C)nc(S/C=C/C(=O)c2ccccc2F)n1 5.01 µM [inhibitor, full curve, poor fit]
Cc1ccc(NC(=O)CN(c2ccc(Cl)cc2)S(=O)(=O)c2cc([N+](=O)[O-])ccc2Cl)cc1 4.47 µM [inhibitor, partial curve]
CCN(CC)CCCn1c2c(c(SCC(=O)Nc3nc4ccccc4s3)nc1=O)CCC2 12.6 µM [inhibitor, partial curve, poor fit]
CC1CCN(c2oc(-c3ccc(F)cc3)nc2C#N)CC1 28.2 µM [inhibitor, single point]
COc1ccc(-n2nc([N+](=O)[O-])c(=NCCc3ccc(C)cc3)n2O)cc1 10 µM [inhibitor, single point]
COc1ccc(/C=N/Nc2cc(N3CCCC3)nc(N3CCCC3)n2)cc1 7.94 µM [inhibitor, partial curve, poor fit]
CNS(=O)(=O)c1cccc(C(=O)Nc2cccc(Cl)c2)c1 10 µM [inhibitor, single point]
CC1(Cc2cccc(F)c2)C(=O)Nc2ccc(OC(F)(F)F)cc21 (stereo not drawn) 10 µM [inhibitor, single point]
S=C(NCCc1ccccc1)NC1CCCCCC1 22.4 µM [inhibitor, single point]
COc1ccc(NC(=O)c2cc3n(n2)C(C(F)(F)F)CC(c2ccc4c(c2)OCO4)N3)cc1OC (stereo not drawn) 3.16 µM [inhibitor, partial curve, poor fit]
CCC(C)(C)C1CCc2[nH]nc(C(=O)NCc3ccc(OC)cc3)c2C1 (stereo not drawn) 28.2 µM [inhibitor, single point]
c1ccc(-c2nc(NCc3cccs3)c3ccccc3n2)cc1 28.2 µM [inhibitor, single point]
C[C@@H](C(=O)Nc1ccc2ccccc2c1)[C@H]1C[C@]1(C)[C@H](NC(=O)c1cnccn1)c1ccccc1 11.2 µM [inhibitor, partial curve, poor fit]
CCOc1cccc2sc(N(CCCN(C)C)C(=O)c3ccc(S(=O)(=O)N(C)c4ccccc4)cc3)nc12 14.1 µM [inhibitor, partial curve, poor fit]
COc1ccccc1NC(=O)CCC(=O)N1CC(C)Oc2ccc(C)cc21 (stereo not drawn) 31.6 µM [inhibitor, partial curve, poor fit]
O=C(CCCNC(=O)c1ccc(Cl)cc1)Nc1cccc(S(=O)(=O)N2CCCCC2)c1 28.2 µM [inhibitor, single point]
CCc1nnc(NC(=O)CSc2nnc(-c3ccccc3O)o2)s1 28.2 µM [inhibitor, single point]
N#Cc1nc(COc2ccc(Br)cc2)oc1N1CCCC1 28.2 µM [inhibitor, single point]
Cc1cc(Cl)ccc1OC(C)C(=O)Nc1ccc(S(=O)(=O)N2CCOCC2)cc1 (stereo not drawn) 11.2 µM [inhibitor, partial curve, poor fit]
CCn1cc(CN2CCc3c([nH]c4ccccc34)C2c2cccc(OC)c2)c(C)n1 (stereo not drawn) 14.1 µM [inhibitor, partial curve, poor fit]
COC(=O)c1ccccc1NC(=O)CSc1ccc(C)cc1 28.2 µM [inhibitor, single point]
Cc1cccc(NC(=O)c2cc3n(n2)C(C(F)(F)F)CC(c2ccc4c(c2)OCO4)N3)c1 (stereo not drawn) 10 µM [inhibitor, single point]
Cc1ccc(C(=O)Oc2coc(CSc3nnc(NC(=O)C4CC4)s3)cc2=O)cc1C 28.2 µM [inhibitor, single point]
Cc1ccc(S(=O)(=O)N2CCCc3cc(NS(=O)(=O)c4cccc(Cl)c4)ccc32)cc1 28.2 µM [inhibitor, single point]
O=C(NC12CC3CC(CC(C3)C1)C2)c1ccc(Br)o1 10 µM [inhibitor, partial curve, poor fit]
COc1ccccc1NC(=O)CSc1nnc(NC(=O)Nc2ccc(C)cc2)s1 10 µM [inhibitor, partial curve]
COc1ccccc1OCC(=O)N1CC2(C)CC1CC(C)(C)C2 (stereo not drawn) 7.08 µM [inhibitor, partial curve, poor fit]
Cc1ccc(NC(=O)C(=Cc2ccc(C(=O)O)cc2)C(=O)Nc2ccc(C)cc2C)c(C)c1 3.98 µM [inhibitor, full curve, poor fit]
COc1cccc(-c2cnc(C(O)c3ccc(C(C)(C)C)cc3)[nH]2)c1 (stereo not drawn) 12.6 µM [inhibitor, single point]
CCOC(=O)CSc1nnc(Cc2ccccc2)n1-c1cccc(Cl)c1 14.1 µM [inhibitor, partial curve, poor fit]
CCc1nc2c(OCC3COc4ccccc4O3)cccn2c1N(C)C(=O)c1ccccc1F (stereo not drawn) 28.2 µM [inhibitor, single point]
O=C(c1ccco1)N(Cc1cc2ccccc2[nH]c1=O)C1CCCCC1 2.51 µM [inhibitor, partial curve, poor fit]
O=C(Nc1ccccc1C(=O)NCc1ccccc1)c1ccccc1Br 31.6 µM [inhibitor, single point]
CCCCN1C(=O)c2[nH]nc(-c3ccccc3O)c2C1c1ccc(OCc2ccccc2)cc1 (stereo not drawn) 10 µM [inhibitor, single point]
O=C1c2ccccc2C(Nc2ccc3c(c2)OCCO3)N1Cc1ccco1 (stereo not drawn) 28.2 µM [inhibitor, single point]
Cc1nc2c(OCc3ccc(OC(F)F)cc3)cccn2c1N(C)C(=O)CCC1CCCC1 11.2 µM [inhibitor, partial curve, poor fit]
c1ccc(CCNc2nc(-c3ccncc3)nc3ccccc23)cc1 2.51 µM [inhibitor, full curve]
CCCCn1c(-c2ccccc2)nnc1-c1ccccc1 11.2 µM [inhibitor, partial curve, poor fit]
COc1cc(S(=O)(=O)NC2CCCC2)c(OC)cc1C 7.94 µM [inhibitor, partial curve, poor fit]
Cc1ccc(OC(=O)C23CC4CC(CC(C4)C2)C3)c(C)n1 20 µM [inhibitor, partial curve, poor fit]

Potency, inactive:
Cc1ccc(C)c(NC(=O)C2CCCN(S(=O)(=O)c3c(C)nn(C)c3C)C2)c1 (stereo not drawn)
CC1(C(=O)Nc2ccc3c(c2)OCCO3)CSCC(=O)N1CC(F)(F)F (stereo not drawn)
CCCc1nnc(NC(=O)Cc2coc3ccc(C(C)C)cc23)s1
O=C(Nc1c(C(=O)O)[nH]c2ccccc12)NC1CCCCC1
CC(CN1CCCC1)OC(=O)Cc1ccc(Cl)cc1 (stereo not drawn)
COc1cc(NC(=O)CSCc2ccc(Cl)cc2)c(C(=O)O)cc1OC
CCN1CCc2c(sc(NC(=O)Cc3ccccc3)c2C(=O)OC)C1
CCCOc1ccc(N2C(=O)CC(SC(=N)N3N=C(c4ccccc4)CC3c3ccccc3)C2=O)cc1 (stereo not drawn)
CCN1CCC(N2CCN(c3ccc(F)cc3)CC2)CC1
O=C(NCCCN1CCOCC1)c1cc2c(s1)CCCC2
c1ccc(-c2nnc(SCCC3OCCCO3)o2)cc1
CCN(CC)c1ccc2cc(-c3nc(-c4cccs4)no3)c(=O)oc2c1
Cc1ccc(NC(=O)C(=S)NCc2ccco2)cc1
O=C(NCCN1CCCC1)c1ccccc1Cl
